Laboratory results from the antibiotic and cytotoxicity screens of Wong et al. (2023).
The list shows a part of the results.

Legend:
[1] = system: HSkMC (human skeletal muscle cells); assay: cytotoxicity call (relative viability < 0.9); conditions: 10 µM
[2] = system: HepG2; assay: cytotoxicity call (relative viability < 0.9); conditions: 10 µM
[3] = system: S. aureus RN4220; assay: growth inhibition call (relative growth <= 0.2); conditions: 50 µM

| Compound | cytotoxicity call [1] | cytotoxicity call [2] | growth inhibition call [3] |
| --- | --- | --- | --- |
| C[C@H](CO)N1C[C@H](C)[C@H](CN(C)S(=O)(=O)c2ccccc2)Oc2c(NC(=O)c3ccncc3)cccc2C1=O | inactive | inactive | inactive |
| COCC(=O)N(C)C[C@H]1Oc2cc(C#C[C@H](C)O)ccc2S(=O)(=O)N([C@@H](C)CO)C[C@H]1C | inactive | inactive | inactive |
| C[C@@H]1CCCCO[C@@H](CN(C)C(=O)CCCN(C)C)[C@H](C)CN([C@H](C)CO)C(=O)c2cc(NC(=O)Nc3ccc(F)cc3)ccc2O1 | inactive | inactive | inactive |
| COc1cc(C=O)ccc1O | inactive | active | inactive |
| CC(C)NC(=O)N(C)C[C@H]1OCCCC[C@@H](C)Oc2ccc(NC(=O)Nc3ccc(C(F)(F)F)cc3)cc2C(=O)N([C@@H](C)CO)C[C@H]1C | inactive | inactive | inactive |
| COC(=O)[C@]12CCC(C)(C)C[C@H]1[C@H]1C(=O)C=C3[C@@]4(C)C=C(C#N)C(=O)C(C)(C)[C@@H]4CC[C@@]3(C)[C@]1(C)CC2 | active | active | inactive |
| O=C1[O][Bi]([OH])[O]c2ccccc21 | inactive | inactive | inactive |
| CCOC(=O)c1c[nH]cnc1=O | inactive | inactive | inactive |
| COc1ccc2oc(C(C)=O)cc2c1 | inactive | inactive | inactive |
| NCCNCCNCCNCCN | inactive | inactive | inactive |
| C[C@@H]1CN([C@H](C)CO)C(=O)Cc2cc(NC(=O)Cn3cnnn3)ccc2O[C@@H]1CN(C)CC1CC1 | inactive | inactive | inactive |
| C[C@@H]1CCCCO[C@H](CN(C)Cc2ccc3c(c2)OCO3)[C@H](C)CN([C@H](C)CO)C(=O)c2cc(NS(=O)(=O)c3cccs3)ccc2O1 | inactive | inactive | inactive |
